The whole screen tested about 420,000 compounds, of which about 50,000 (12%) were called active. The shares of active, inactive and inconclusive entries below differ from those in the screen. The call rests on the fitted dose curve; in most records, active means well fitted inhibition curve with a large enough effect; inconclusive means small, poorly fitted or top-dose-only effect; inactive means flat fitted curve, though single readings scatter. Potencies of inconclusive entries are left out as doubtful fits.
Test: qHTS for Inhibitors of human tyrosyl-DNA phosphodiesterase 1 (TDP1): qHTS in cells in presence of CPT; further: nearly all actives have a fitted effect of over 55% in size
Settings: chicken DT40 Tdp1-/-;hTDP1 cells + 20 nM CPT, ATP luminescence, 48 h; activity change, negative = growth inhibition: at 46.2 µM (top of the series) unless noted
Summary of the method: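 Chicken DT40 Tdp1-/- cells stably complemented with human TDP1 were seeded at 400 cells/well in medium containing 20 nM camptothecin, exposed to pin-transferred compounds, and grown at 37 °C for at least 48 hr. Viability was read as ATP luminescence.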
On the % scale 0 is the no-effect control and ±100 the full control effect; potency means the concentration at half of the fitted maximal effect; tags describe the fitted curve by direction and shape.

Row | SMILES | Potency | activity change, negative = growth inhibition
1 | COc1cccc(CNCc2cccn2-c2nnc(N3CCN(c4ccccc4)CC3)s2)c1 | inconclusive [inhibitor, single point] | –
2 | CC(C(=O)N1c2ccccc2CCc2ccccc21)n1nnc(-c2ccc(N(C)C)cc2)n1 (centres undefined) | inconclusive [inhibitor, single point] | –
3 | COCCCNCc1cc(C)n(-c2cc(S(=O)(=O)N3CCOCC3)ccc2N2CCCC2)c1C | inconclusive [inhibitor, single point] | –
4 | Cc1ccc(S(=O)(=O)N/N=C/c2cccc(OC3CSC3)c2)cc1 | inconclusive [inhibitor, single point] | –
5 | O=C(Oc1cccc2cccnc12)c1cccs1 | active: 0.92 µM | –
6 | CCC(=O)N(c1nnc(SCC(=O)Nc2sccc2C(N)=O)s1)C1CC1 | inconclusive [inhibitor, full curve, poor fit] | –
7 | O=C1N2CN(C(c3ccccc3)c3ccccc3)CN=C2SC1(CO)CO | inconclusive [inhibitor, single point] | –
8 | CC(=O)C1CN(S(=O)(=O)c2ccc(C)cc2)C(c2ccccc2)CC1C (centres undefined) | inconclusive [inhibitor, partial curve] | –
9 | COc1ccc(CCNC(=O)c2cc(=O)c3cc(C)ccc3o2)cc1 | active: 23.1 µM | –
10 | CCOc1ccc(NCc2cccn2-c2nnc(N3CCC(C(=O)NCCCN4C(C)CCCC4C)CC3)s2)cc1 (centres undefined) | inconclusive [inhibitor, single point] | –
11 | CCN(CC)CCCC(C)Nc1nccc2c(Cl)cccc12 (centres undefined) | active: 20.6 µM | –
12 | O=C(Nc1nc(-c2ccco2)c(-c2ccco2)s1)c1ccco1 | inconclusive [inhibitor, single point] | –
13 | COc1ccccc1CCC(=O)Nc1nc2ccccc2[nH]1 | active: 5.8 µM | –
14 | COCCCn1cnc2c(c1=O)c1nc3ccccc3nc1n2-c1ccc(C)cc1 | inconclusive [inhibitor, partial curve] | –
15 | O=C(O)CC(NC(=O)CCC1CCCCC1)c1cc([N+](=O)[O-])ccc1Cl (centres undefined) | – | inactive: 4.75%
16 | CCC(c1nnnn1C1CCCC1)N1CCN(c2cccc(OC)c2)CC1 (centres undefined) | inconclusive [inhibitor, partial curve, poor fit] | –
17 | OCC[C@@H]1C[C@H](O)[C@@H](O)[C@]2(Cc3ccccc3O2)O1 | inconclusive [inhibitor, full curve, poor fit] | –
18 | Cc1ccc(CNC(=O)CSc2nnc(C)c3c(C)n(-c4ccccc4)nc23)cc1 | inconclusive [inhibitor, single point] | –
19 | CCOCCn1c(-c2ccc(OC)cc2)nc2ccccc21 | inconclusive [inhibitor, partial curve] | –
20 | CC(C)OP(=O)(OC(C)C)C(Nc1ccc(C(=O)O)cc1)c1ccccc1 (centres undefined) | – | inactive: -17.8%
21 | Cc1nn2cc(-c3ccccc3)nc2[nH]c1=O | – | inactive: -6.51%
22 | CO/N=C(\C(=O)N[C@@H]1C(=O)N2C(C(=O)O)=C(C[N+]3(C)CCCC3)CS[C@H]12)c1csc(N)n1 | – | inactive: -6.89%

Row | SMILES | Potency | activity change, negative = growth inhibition
23 | COc1ccc(S(=O)(=O)Nc2ccc(F)c(F)c2)cc1Cl | inconclusive [inhibitor, single point] | –
24 | CCOc1ccc(S(=O)(=O)N2CCOCC2)cc1NC(=O)C1CSC2(C)CCC(=O)N12 (centres undefined) | – | inactive: -13.1%
25 | COc1ccc(CCN(C)c2ncnc3sccc23)cc1OC | inconclusive [inhibitor, partial curve, poor fit] | –
26 | Cc1cccnc1C(NC(=O)C1CCN(CCCc2ccccc2)CC1)c1ccc(F)cc1 (centres undefined) | inconclusive [inhibitor, partial curve, poor fit] | –
27 | COc1ccc(C(=O)Nc2c(Cl)cc(Cl)cc2C(=O)NCc2ccco2)cc1 | inconclusive [inhibitor, single point] | –
28 | CN(Cc1ccccc1)S(=O)(=O)c1ccc(Cl)c(C(=O)NCCCN2CCOCC2)c1 | – | inactive: -9.17%
29 | CC1CCN(S(=O)(=O)c2ccc3c(ccc(=O)n3CC(=O)NCc3ccccc3Cl)c2)CC1 | active: 18.4 µM | –
30 | Cn1cccc1C(=O)N1CCC2(CC1)CCN(c1ncccn1)CC2 | – | inconclusive: -30.7% [inhibitor]
31 | CC(C)NC(=O)Nc1cccc2c1O[C@H](CN(C)C(=O)NC(C)C)[C@@H](C)CN([C@H](C)CO)C2=O | – | inactive: -14.9%
32 | Nc1nc(-c2sc3nc4c(cc3c2N)CCCC4)nc(N2CCOCC2)n1 | inconclusive [inhibitor, single point] | –
33 | CCCNC(=O)c1cc(S(=O)(=O)N2CCc3ccccc32)cn1C | active: 23.1 µM | –
34 | COc1ccc(NC(=O)CN2C(=O)COc3ccc(C)cc32)cc1 | – | inactive: -10.6%
35 | CN1CCC(C(=O)C(=O)O)C1=O (centres undefined) | inconclusive [inhibitor, single point] | –
36 | CCOc1cccc2cc(C(=O)NCc3cccnc3)c(=O)oc12 | – | inactive: 2.28%
37 | CC(C)(C)SC(=O)CC1NS(=O)(=O)OCC1NC(=O)OCC(Cl)(Cl)Cl (centres undefined) | inconclusive [inhibitor, single point] | –
38 | COc1ccc(NC(=O)CSC2=Nc3ccccc3N=C(c3ccc(F)cc3)C2)cc1OC | inconclusive [inhibitor, single point] | –
39 | Cc1ccc(-c2nnc(Oc3cccc(C)c3)c3ccccc23)cc1 | inconclusive [inhibitor, single point] | –
40 | O=C(NCc1ccc(F)cc1)c1cc2c(cc1Cl)N1CCCCCC1=NS2(=O)=O | – | inactive: -16.6%
41 | CCOC(=O)c1c(NC(=O)C2CCCN2S(=O)(=O)c2cccc3nsnc23)sc(C)c1C (centres undefined) | inconclusive [inhibitor, full curve, poor fit] | –
42 | O=C1CN(C(=O)NCC(=O)N2CCCC2)c2ccccc2N1 | – | inactive: 7.73%
43 | C=CCN(Cc1ccc(Br)s1)C(=O)c1ccc(OCc2c(C)noc2C)cc1 | inconclusive [inhibitor, partial curve] | –
44 | C[C@]12CCC(O)CC1CCC1C2CC[C@]2(C)C(c3cc(C(F)(F)F)n[nH]3)CCC12 (some centres undefined) | inconclusive [inhibitor, single point] | –

From PubChem BioAssay AID686979 (National Center for Advancing Translational Sciences (NCATS), 2013)
